Measured values published in the supplement of paper PMC11417369.
± gives the standard deviation of the averaged measurements. The list shows a part of the results.

The sequences below were run on PfAP2-G AP2 domain (GST-tagged) (assay: gcPBM binding intensity (ln(normalized median fluorescence intensity)); higher = stronger DNA binding).
Procedure, shortened: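 For binding intensity, the highest Masliner-normalised natural-log median intensity across replicate spots of either probe orientation was taken. Protein bound to the array was stained with Alexa488 anti-GST antibody and scanned at 488 nm. The protein, GST-tagged P. falciparum DNA-binding domains from E. coli at about 25 μg on average, had been applied for 1 h to an Agilent 4 × 180k array of primer-extended double-stranded 36-bp intergenic genomic probes and negative controls.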

Q: Which “gcPBM binding intensity (ln)” value does the source give for “ATTATATACATATATATACACACGTAGTTTCTATTT [CACACA_site8697]” here?
A: Its value is 9.81 ± 0.099.

Q: With “AGATTTAAATTTATATGTACATAATATGGGCGTATA [XGTACX_site6631]” as the sequence, how does the “gcPBM binding intensity (ln)” value read?
A: Its value is 11.5 ± 0.88.

Q: With GGTCTTCTTAATATACTGCACTGTATACGTATATAA as the sequence, how does the “gcPBM binding intensity (ln)” value read?
A: Its value is 10.5 ± 0.31.

Q: “TTCATAAAATGATATTGTACAAATAAATAATAGTAT [XGTACX_site819]” was tested. Which “gcPBM binding intensity (ln)” value did it give?
A: Its value is 11 ± 0.61.

Q: How did the “gcPBM binding intensity (ln)” value turn out when “ATTCTTATTTAAAGGTGTACTCTTAAACAGATTTTA [XGTACX_site3526]” was run?
A: The value was 11.5 ± 1.

Q: How did the “gcPBM binding intensity (ln)” value turn out when “CACCCCCACAGACACACACACACACCCACATATATA [CACACA_site365]” was run?
A: The value was 11.1 ± 0.65.

Q: With “GTACACATATAGTAATAATTTTATTATATTTTTTTG [CACACA_negctrl_site843]” as the sequence, how does the “gcPBM binding intensity (ln)” value read?
A: The value was 10.8 ± 0.38.

Q: For “ATTTTAATATAAAATACACACTACTATTATAAATAT [CACACA_site4917]”, which “gcPBM binding intensity (ln)” value is on record?
A: The value was 10.1 ± 0.13.

Q: How did the “gcPBM binding intensity (ln)” value turn out when “TGTAGATTTTGTAACACACACATATATATACATATA [CACACA_site2405]” was run?
A: Its value is 9.985 ± 0.078.

Q: Which “gcPBM binding intensity (ln)” value does the source give for “AATATATGGTTCCATGATATTAAATTCAATTTAATG [CACACA_negctrl_site605]” here?
A: Its value is 10.3 ± 0.19.

Q: For “TTTTTTTTGTTCTATACAATTATAAAAATAAAATAT [XGTACX_negctrl_site53]”, which “gcPBM binding intensity (ln)” value is on record?
A: The value was 9.8 ± 0.15.

Q: “GTACATAGATTGTACATACACACCTATATAAATATC [CACACA_site3225]” was tested. Which “gcPBM binding intensity (ln)” value did it give?
A: Its value is 11.2 ± 0.58.

Q: Which “gcPBM binding intensity (ln)” value does the source give for “AATGTAAAAGTAAACACACACATATATAAATACATA [CACACA_site5386]” here?
A: Its value is 10.005 ± 0.007.

Q: For “TACACAAGCAGACACACACACATATATATATATATA [CACACA_site1270]”, which “gcPBM binding intensity (ln)” value is on record?
A: The value was 10 ± 0.19.

Q: “GCTTATATAAAAAGTTGTACAACCGAATCTTTTACA [XGTACX_site2119]” was tested. Which “gcPBM binding intensity (ln)” value did it give?
A: Its value is 11.5 ± 0.85.

Q: Which “gcPBM binding intensity (ln)” value does the source give for “TAATATCATTTATGTAGTACTATAACAAGAACTATA [XGTACX_site3618]” here?
A: The value was 11.3 ± 0.63.

Q: “AAAAAAAAAAAGCACACACACATATGAGTATATATA [CACACA_site4683]” was tested. Which “gcPBM binding intensity (ln)” value did it give?
A: Its value is 10.2 ± 0.11.

Q: For “TGTCATTTAATTTTTTGTACGAAAAAAACATATAAA [XGTACX_site4952]”, which “gcPBM binding intensity (ln)” value is on record?
A: The value was 11.1 ± 0.78.

Q: With “TAGATATATAGACACACACACATTAATACCTATATT [CACACA_site7605]” as the sequence, how does the “gcPBM binding intensity (ln)” value read?
A: The value was 10.09 ± 0.028.

Q: How did the “gcPBM binding intensity (ln)” value turn out when “AGTTGTTTTAATAATGCATGTTATTTTATTTTAATA [TGCATGCA_site168]” was run?
A: The value was 9.71 ± 0.17.

Q: Which “gcPBM binding intensity (ln)” value does the source give for “GTATATATATATGTATATATTTTATTTTATTTTTAT [CACACA_negctrl_site1439]” here?
A: Its value is 9.4 ± 0.23.

Q: For “TATATATATAGACACACACACACATATATATATATA [CACACA_site9366]”, which “gcPBM binding intensity (ln)” value is on record?
A: Its value is 10.2 ± 0.28.

Q: “AATTCAAAATAAAAATGTACATATATCAGAATATGG [XGTACX_site42]” was tested. Which “gcPBM binding intensity (ln)” value did it give?
A: Its value is 11 ± 0.56.

Q: For “ATATATAATCATATGTGTACATATATATTAATTTAA [XGTACX_site2839]”, which “gcPBM binding intensity (ln)” value is on record?
A: Its value is 11.4 ± 0.91.

Q: “ACTTGTAAGAAACACACACACACACCGATATATATA [CACACA_site4594]” was tested. Which “gcPBM binding intensity (ln)” value did it give?
A: Its value is 10.1 ± 0.16.

Q: Which “gcPBM binding intensity (ln)” value does the source give for “AAAAATAAGAAAAAGTGTACTTTATTATGTATATAT [XGTACX_site2305]” here?
A: Its value is 11.4 ± 0.85.

Q: For “ATTATTTTTTTTCTTATACACACCATGCATCAAACT [CACACA_site2128]”, which “gcPBM binding intensity (ln)” value is on record?
A: Its value is 10.2 ± 0.16.

Q: How did the “gcPBM binding intensity (ln)” value turn out when “AAAAAAAAAAAAAAAACACACATTTAATGAACTTAT [CACACA_site1276]” was run?
A: The value was 10.4 ± 0.18.

Q: Which “gcPBM binding intensity (ln)” value does the source give for “ATGAGAAAATATATTATTTTATATGAACAAGTTTAT [XGTACX_negctrl_site372]” here?
A: Its value is 9.8 ± 0.12.

Q: With “AAATGTTATATATAATGTACTTGTAAGAACGTTCCT [XGTACX_site2840]” as the sequence, how does the “gcPBM binding intensity (ln)” value read?
A: The value was 11.1 ± 0.68.

Q: Which “gcPBM binding intensity (ln)” value does the source give for “AATAATGTATGAAATAAACACACAAGTAAGTACATA [CACACA_site8776]” here?
A: Its value is 11.7 ± 0.91.

Q: For “ATAATTTTAAATAAATGTACATATAGATGTGTGTAA [XGTACX_site3958]”, which “gcPBM binding intensity (ln)” value is on record?
A: The value was 11.2 ± 0.67.

Q: “AAAATTATATATTATAGTACATAAAATATTGATAAA [XGTACX_site8988]” was tested. Which “gcPBM binding intensity (ln)” value did it give?
A: The value was 11.1 ± 0.66.

Q: For “AAGATACACTTAATCGCACACGAAATTATATATTTA [CACACA_site3063]”, which “gcPBM binding intensity (ln)” value is on record?
A: The value was 10.1 ± 0.24.

Q: Which “gcPBM binding intensity (ln)” value does the source give for “TTTTTTTTTTATGTTATTAAAAAAAAAAAAAATTAA [CACACA_negctrl_site222]” here?
A: The value was 9.99 ± 0.42.

Q: “TATAACATTGTATGAATGCACTTTTATCTATTTTAA [GTGCAC_site9903]” was tested. Which “gcPBM binding intensity (ln)” value did it give?
A: The value was 9.79 ± 0.18.

Q: How did the “gcPBM binding intensity (ln)” value turn out when “TATTTATTTATATACACACACTTGTATAAAAAATGT [CACACA_site7048]” was run?
A: The value was 10.3 ± 0.33.

Q: With “TAAGTATACTCATACACACACACACTAGAAAAAAAA [CACACA_site4397]” as the sequence, how does the “gcPBM binding intensity (ln)” value read?
A: The value was 10.3 ± 0.31.

Q: For “AGAGATACATAAAAAAGTACATATAAAATTTAGGAA [XGTACX_site7201]”, which “gcPBM binding intensity (ln)” value is on record?
A: Its value is 11.4 ± 0.88.

Q: Which “gcPBM binding intensity (ln)” value does the source give for “TGTGCTCAAAATTATGCACACACCTAAAATTAATTT [CACACA_site8950]” here?
A: Its value is 10.2 ± 0.14.

Q: Which “gcPBM binding intensity (ln)” value does the source give for “TACAAATTAATATGTACACACAAATATATATATATA [CACACA_site1977]” here?
A: The value was 11.4 ± 0.87.

Q: How did the “gcPBM binding intensity (ln)” value turn out when “ATAATATGAAACTAAGGTACACATATATTAACAGAG [XGTACX_site3842]” was run?
A: Its value is 11.2 ± 0.79.

Q: For “TGCGACCATAATAAAGCACACAATGAAAAATATATA [CACACA_site256]”, which “gcPBM binding intensity (ln)” value is on record?
A: The value was 10.4 ± 0.23.

Q: With “AAACCTACATAACATACACACGCATATATATAATTT [CACACA_site8923]” as the sequence, how does the “gcPBM binding intensity (ln)” value read?
A: The value was 10.09 ± 0.099.

Q: Which “gcPBM binding intensity (ln)” value does the source give for “TATACATATTTTATAGCACACAAATAATAATATGTA [CACACA_site8129]” here?
A: The value was 9.95 ± 0.13.

Q: Which “gcPBM binding intensity (ln)” value does the source give for “CCAACTATATTATGAAGTACATATATATTATATATA [XGTACX_site5767]” here?
A: Its value is 11.2 ± 0.71.

Q: With “GTAAGTATATATAAATGTACTTATGAGGTCAAATTA [XGTACX_site3392]” as the sequence, how does the “gcPBM binding intensity (ln)” value read?
A: Its value is 11.2 ± 0.71.

Q: For “TTGGGTATTTTGTGCGCACACACATGCAAAAAGAAA [CACACA_site8299]”, which “gcPBM binding intensity (ln)” value is on record?
A: The value was 11 ± 0.6.

Q: How did the “gcPBM binding intensity (ln)” value turn out when “ATATATATATATTGTAGTACTTATTAAATTATTTAT [XGTACX_site6235]” was run?
A: Its value is 11.4 ± 0.76.

Q: For “TCTGTATTTCCTTATGCATGCATTAGCAAGATAATA [TGCATGCA_site483]”, which “gcPBM binding intensity (ln)” value is on record?
A: Its value is 10.2 ± 0.26.

Q: For “TTTTTTTTTTTTTATTGTACATGCAAAAAATTCCAC [XGTACX_site2371]”, which “gcPBM binding intensity (ln)” value is on record?
A: The value was 11 ± 0.82.

Q: How did the “gcPBM binding intensity (ln)” value turn out when “TTATAATTATATACATGTACATATAATACATATATA [XGTACX_site8904]” was run?
A: Its value is 11 ± 0.6.

Q: Which “gcPBM binding intensity (ln)” value does the source give for “AATATATGTATGTACGCATGTATGTATCTATGTATT [TGCATGCA_site389]” here?
A: The value was 11.5 ± 0.84.

Q: For “GTATAATTTTCGTATTCACACAAGAATATACTACAT [CACACA_site4877]”, which “gcPBM binding intensity (ln)” value is on record?
A: The value was 10.3 ± 0.24.

Q: “ATATGGGTAATGAATTGTACTCTTTCTTGTTGTTCT [XGTACX_site4487]” was tested. Which “gcPBM binding intensity (ln)” value did it give?
A: Its value is 11.3 ± 0.73.

Q: With “TGTAATAAATAGTACACACACACATATTTATATATC [CACACA_site6770]” as the sequence, how does the “gcPBM binding intensity (ln)” value read?
A: The value was 11.3 ± 0.83.

Q: Which “gcPBM binding intensity (ln)” value does the source give for “GTTATATTTTTTTATACACACTGGAATATATAAATA [CACACA_site4282]” here?
A: Its value is 10.1 ± 0.19.
